Experimental data published in the supplement of paper PMC8728848.
This is one part of the list.

Columns and labels:
Experiment in all cases: glycan array binding signal (z-score within array); higher = stronger binding
Details in all cases: glycan notation: IUPAC condensed, linker removed
[1] = target: GlcNAc(b1-3)Gal(b1-4)GlcNAc(b1-3)Gal(b1-4)GlcNAc(b1-3)Gal(b1-4)GlcNAc(b1-3)Gal(b1-4)GlcNAc(b1-2)Man(a1-3)[GlcNAc(b1-3)Gal(b1-4)GlcNAc(b1-3)Gal(b1-4)GlcNAc(b1-3)Gal(b1-4)GlcNAc(b1-3)Gal(b1-4)GlcNAc(b1-2)Man(a1-6)]Man(b1-4)GlcNAc(b1-4)GlcNAc
Procedure, shortened: (§1)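 The binding signal is a Z-score computed within each array. Data were drawn from 3228 arrays in the Consortium for Functional Glycomics database, restricted to those with a known protein sequence. Scores were averaged over arrays of the same protein sequence at different concentrations or buffers, and over linkers, and negative values can be taken as non-binding.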

[2] = target: GlcNAc(b1-3)Gal(b1-4)GlcNAc(b1-3)Gal(b1-4)GlcNAc(b1-3)Gal(b1-4)GlcNAc(b1-3)Gal(b1-4)GlcNAc(b1-2)Man(a1-3)[GlcNAc(b1-3)Gal(b1-4)GlcNAc(b1-3)Gal(b1-4)GlcNAc(b1-3)Gal(b1-4)GlcNAc(b1-3)Gal(b1-4)GlcNAc(b1-2)Man(a1-6)]Man(b1-4)GlcNAc(b1-4)[Fuc(a1-6)]GlcNAc
Procedure, shortened: as §1

[3] = target: GlcNAc(b1-3)Gal(b1-4)GlcNAc(b1-3)Gal(b1-4)GlcNAc(b1-3)Gal(b1-4)GlcNAc(b1-3)Gal(b1-4)GlcNAc(b1-2)[GlcNAc(b1-3)Gal(b1-4)GlcNAc(b1-3)Gal(b1-4)GlcNAc(b1-3)Gal(b1-4)GlcNAc(b1-3)Gal(b1-4)GlcNAc(b1-6)]Man(a1-6)[GlcNAc(b1-3)Gal(b1-4)GlcNAc(b1-3)Gal(b1-4)GlcNAc(b1-3)Gal(b1-4)GlcNAc(b1-3)Gal(b1-4)GlcNAc(b1-2)Man(a1-3)]Man(b1-4)GlcNAc(b1-4)[Fuc(a1-6)]GlcNAc
Procedure, shortened: as §1

[4] = target: GlcNAc(b1-3)Gal(b1-4)GlcNAc(b1-3)Gal(b1-4)GlcNAc(b1-3)GalNAc
Procedure, shortened: as §1

[5] = target: GlcNAc(b1-3)Gal(b1-4)GlcNAc(b1-3)GalNAc
Procedure, shortened: as §1

[6] = target: GlcNAc(b1-3)Gal(b1-4)GlcNAc(b1-3)[GlcNAc(b1-3)Gal(b1-4)GlcNAc(b1-3)]GalNAc
Procedure, shortened: as §1

[7] = target: GlcNAc(b1-3)Gal(b1-4)GlcNAc(b1-6)[Gal(b1-3)]GalNAc
Procedure, shortened: as §1

[8] = target: GlcNAc(b1-3)Gal(b1-4)GlcNAc(b1-6)[GlcNAc(b1-3)Gal(b1-3)]GalNAc
Procedure, shortened: as §1

[9] = target: GlcNAc(b1-3)Gal(b1-4)GlcNAc(b1-6)[GlcNAc(b1-3)]Gal(b1-4)GlcNAc
Procedure, shortened: as §1

[10] = target: GlcNAc(b1-3)GalNAc
Procedure, shortened: as §1

[11] = target: GlcNAc(b1-3)Man
Procedure, shortened: as §1

[12] = target: GlcNAc(b1-3)[GlcNAc(b1-4)][GlcNAc(b1-6)]GlcNAc
Procedure, shortened: as §1

[13] = target: GlcNAc(b1-3)[GlcNAc(b1-6)]Gal(b1-4)GlcNAc
Procedure, shortened: as §1

[14] = target: GlcNAc(b1-3)[GlcNAc(b1-6)]GalNAc
Procedure, shortened: as §1

[15] = target: GlcNAc(b1-3)[GlcNAc(b1-6)]GlcNAc(b1-4)GlcNAc
Procedure, shortened: as §1

[16] = target: GlcNAc(b1-4)Gal(b1-4)GlcNAc
Procedure, shortened: as §1

[17] = target: GlcNAc(b1-4)GlcNAc
Procedure, shortened: as §1

[18] = target: GlcNAc(b1-4)GlcNAc(b1-4)GlcNAc
Procedure, shortened: as §1

[19] = target: GlcNAc(b1-4)GlcNAc(b1-4)GlcNAc(b1-4)GlcNAc(b1-4)GlcNAc
Procedure, shortened: as §1

[20] = target: GlcNAc(b1-4)GlcNAc(b1-4)GlcNAc(b1-4)GlcNAc(b1-4)GlcNAc(b1-4)GlcNAc
Procedure, shortened: as §1

[21] = target: GlcNAc(b1-4)[GlcNAc(b1-6)]GalNAc
Procedure, shortened: as §1

[22] = target: GlcNAc(b1-6)Gal(b1-4)GlcNAc
Procedure, shortened: as §1

[23] = target: GlcNAc(b1-6)GalNAc
Procedure, shortened: as §1

[24] = target: GlcNAc6S(b1-3)Gal(b1-4)GlcNAc
Procedure, shortened: as §1

[25] = target: Kdn(a2-3)Gal(b1-3)GalNAc
Procedure, shortened: as §1

[26] = target: Kdn(a2-3)Gal(b1-3)GlcNAc
Procedure, shortened: as §1

[27] = target: Kdn(a2-3)Gal(b1-4)Glc
Procedure, shortened: as §1

[28] = target: Kdn(a2-3)Gal(b1-4)GlcNAc
Procedure, shortened: as §1

[29] = target: Kdn(a2-3)Gal(b1-4)[Fuc(a1-3)]GlcNAc
Procedure, shortened: as §1

[30] = target: Kdn(a2-6)Gal(b1-4)GlcNAc
Procedure, shortened: as §1

[31] = target: Man(a1-2)Man(a1-2)Man(a1-3)Man
Procedure, shortened: as §1

[32] = target: Man(a1-2)Man(a1-2)Man(a1-6)[Man(a1-3)]Man
Procedure, shortened: as §1

[33] = target: Man(a1-2)Man(a1-3)Man
Procedure, shortened: as §1

[34] = target: Man(a1-2)Man(a1-3)[Man(a1-2)Man(a1-6)]Man
Procedure, shortened: as §1

[35] = target: Man(a1-2)Man(a1-3)[Man(a1-2)Man(a1-6)]Man(a1-6)[Man(a1-2)Man(a1-2)Man(a1-3)]Man
Procedure, shortened: as §1

[36] = target: Man(a1-2)Man(a1-3)[Man(a1-2)Man(a1-6)]Man(a1-6)[Man(a1-2)Man(a1-2)Man(a1-3)]Man(b1-4)GlcNAc(b1-4)GlcNAc
Procedure, shortened: as §1

[37] = target: Man(a1-2)Man(a1-3)[Man(a1-6)]Man(a1-6)[Man(a1-2)Man(a1-3)]Man(b1-4)GlcNAc(b1-4)GlcNAc
Procedure, shortened: as §1

[38] = target: Man(a1-2)Man(a1-6)[Man(a1-3)]Man(a1-6)[Man(a1-2)Man(a1-2)Man(a1-3)]Man
Procedure, shortened: as §1

B1: LCA (Lens culinaris), P02870 (protein)
chain: MASLQTQMISFYLIFLSILLTTIFFFKVNSTETTSFSITKFSPDQKNLIFQGDGYTTKGKLTLTKAVKSTVGRALYSTPIHIWDRDTGNVANFVTSFTFVIDAPSSYNVADEFTFFIAPVDTKPQTGGGYLGVFNSKEYDKTSQTVAVEFDTFYNAAWDPSNKERHIGIDVNSIKSVNTKSWNLQNGERANVVIAFNAATNVLTVTLTYPNSLEEENVTSYTLNEVVPLKDVVPEWVRIGFSATTGAEFAAHEVHSWSFHSELGGTSSSKQAADA
With B1 the “glycan array binding signal (z-score)” value [1] was -0.19, the “glycan array binding signal (z-score)” value [2] was 3.94 and the “glycan array binding signal (z-score)” value [3] was 2.76. For the same binder, the “glycan array binding signal (z-score)” value [4] was -0.239, the “glycan array binding signal (z-score)” value [5] was -0.255 and the “glycan array binding signal (z-score)” value [6] was -0.251. For the same binder, the “glycan array binding signal (z-score)” value [7] was -0.232, the “glycan array binding signal (z-score)” value [8] was -0.253 and the “glycan array binding signal (z-score)” value [9] was -0.24. The “glycan array binding signal (z-score)” value [10] was -0.209, the “glycan array binding signal (z-score)” value [11] was -0.218 and the “glycan array binding signal (z-score)” value [12] was -0.2. The “glycan array binding signal (z-score)” value [13] was -0.223, the “glycan array binding signal (z-score)” value [14] was -0.23 and the “glycan array binding signal (z-score)” value [15] was -0.223. The “glycan array binding signal (z-score)” value [16] was -0.264, the “glycan array binding signal (z-score)” value [17] was -0.232 and the “glycan array binding signal (z-score)” value [18] was -0.184. The “glycan array binding signal (z-score)” value [19] was -0.225, the “glycan array binding signal (z-score)” value [20] was -0.203 and the “glycan array binding signal (z-score)” value [21] was -0.223. For the same binder, the “glycan array binding signal (z-score)” value [22] was -0.224, the “glycan array binding signal (z-score)” value [23] was -0.212 and the “glycan array binding signal (z-score)” value [24] was -0.217. The “glycan array binding signal (z-score)” value [25] was -0.225, the “glycan array binding signal (z-score)” value [26] was -0.215 and the “glycan array binding signal (z-score)” value [27] was -0.223. The “glycan array binding signal (z-score)” value [28] was -0.198, the “glycan array binding signal (z-score)” value [29] was -0.228 and the “glycan array binding signal (z-score)” value [30] was -0.174. For the same binder, the “glycan array binding signal (z-score)” value [31] was 1.41, the “glycan array binding signal (z-score)” value [32] was 2.06 and the “glycan array binding signal (z-score)” value [33] was 1.09. The “glycan array binding signal (z-score)” value [34] was 1.52, the “glycan array binding signal (z-score)” value [35] was 1.19 and the “glycan array binding signal (z-score)” value [36] was 1.88. The “glycan array binding signal (z-score)” value [37] was 2.09 and the “glycan array binding signal (z-score)” value [38] was 0.773.
